Data reported in PubChem BioAssay AID504706 (National Center for Advancing Translational Sciences (NCATS), 2011).
In all, about 320,000 compounds went through this assay and about 200 (0.062%) were called active. The inconclusive results got no clear call from the source; some entries with a clear call stand among them for comparison. Calls come from the whole dose curve; as a rule, active = well fitted activation curve with a large enough effect; inconclusive = small, poorly fitted or top-dose-only effect; inactive = no such curve, though single readings can be large or run the other way. No potency is given beside an inconclusive call; the fits are too rough.

test: qHTS assay for re-activators of p53 using a Luc reporter; details: H1299 p53-A138V BP100-luciferase reporter, luminescence, 24 h; series mostly up to 92.2 µM; activity change, positive = activation: at the top concentration; note: nearly all actives have a fitted effect of over 45% in size; for activity change, positive = activation: % of control where 0% means no effect
How it was run: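 H1299 (p53-null), stable ts p53-A138V + BP100-Luc; 1000 cells/well, Opti-MEM/10% FBS; cpd 4 pt, 1:5; 24 h, 37 deg C, 5% CO2; detection reagent 10 min RT; luminescence.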
Potency is the fitted concentration of half-maximal effect; tags give direction and shape of the fitted curve.

Structure (SMILES)	activity change, positive = activation	Potency
CNc1ccc(/C=C2\COc3ccccc3C2=O)cc1[N+](=O)[O-]	inactive: 0.111%	
Cc1cccc2sc(NC(=O)CNS(=O)(=O)c3ccc(Br)s3)nc12	inactive: -4.97%	
CCCCC(=O)NC(=S)Nc1c(C)cc(Br)cc1C	inactive: -0.938%	
O=C1CCC(C(=O)Nc2ccc([N+](=O)[O-])cc2)N1 (stereo not given)	inactive: 2.18%	
COc1ccccc1-c1cc(C(=O)Nc2cccnc2)no1		inconclusive [activator, partial curve, poor fit]
S=C(NCc1cccs1)Nc1ccc(Cl)cc1		inconclusive [activator, single point]
COC(=O)C(C(=O)OC)C(C)C(C(=O)OC)C(=O)OC	inactive: -0.31%	
O=C(/C=C/c1cccc2ccccc12)c1ccncc1		inconclusive [activator, partial curve, poor fit]
CC(=O)Nc1ccc(S(=O)(=O)c2ccc(N)cc2)cc1	inactive: -2.94%	
O=C(Nc1cccc(S(=O)(=O)N2CCCCCC2)c1)C1CCN(C(=O)c2ccc(F)cc2)CC1	inactive: 2.42%	
CC1CCCN(c2ccc(C(=O)Nc3cccnc3)cc2[N+](=O)[O-])C1 (stereo not given)		inconclusive [activator, partial curve, poor fit]
CCCc1nnc(-c2ccc(OC)cc2)o1		inconclusive [activator, partial curve, poor fit]
O=C(O)c1ccc(N/N=C/c2ccc(-c3cc(Cl)ccc3Cl)o2)cc1	inactive: 18.3%	
N#C/C(=C/c1ccc(N2CCCCC2)cc1)c1cccc(F)c1		inconclusive [activator, full curve, poor fit]
O=C(Nc1ccc2c(c1)OCO2)N1CCOCC1	inactive: 16.6%	
CCn1c(SCC(=O)NCCCN2CCCC2=O)nnc1-c1cccc(C)c1	inactive: -3.29%	
Cc1cc2oc(=O)cc(Cn3ccnc3)c2cc1Cl	inactive: -3.66%	
CC(C)c1ccc(/C=N/NC(=O)c2c(Cl)cnn2C)cc1		inconclusive [activator, partial curve, poor fit]
CCOC(=O)c1ccc(NC(=O)c2sc3nc(N4CCOCC4)c4c(c3c2N)CCCC4)cc1	inactive: -1.92%	
CCc1ccc(C(C)NC(=S)NC2CCCCC2)cc1 (stereo not given)	inactive: 11.6%	
O=C(O)Cc1ccc(NC(=O)COc2ccc3ccccc3c2)cc1	inactive: -7.31%	
CCCc1[nH]n(-c2nc3ccccc3s2)c(=O)c1C=NCCN1CCOCC1		inconclusive [activator, full curve, poor fit]
CCNC(=S)N/N=C/c1cn(Cc2ccc(F)cc2)c2ccccc12	inactive: 2.5%	
Cc1nc(C#N)c(N/N=C/c2cccc(Cl)c2)o1		inconclusive [activator, partial curve, poor fit]
O=C(O)CCCN1C(=O)/C(=C/c2ccncc2)SC1=S		inconclusive [activator, single point]

Structure (SMILES)	activity change, positive = activation	Potency
CCc1ccc(NC(=O)N(C2CCC(C)CC2)C2CCN(C(C)=O)CC2)cc1 (stereo not given)		inconclusive [activator, single point]
O=C(/C=C\c1ccco1)Nc1nc(-c2ccccc2)cs1		inconclusive [activator, full curve]
CN(C)S(=O)(=O)c1ccc(N2CCCC2)c(C(=O)Nc2nc3ccccc3s2)c1		inconclusive [activator, single point]
O=[N+]([O-])c1ccc(O)c2cccnc12	inactive: 1.51%	
Cc1nn(-c2ccccc2)c(C)c1NC(=O)COC(=O)c1cc(Br)ccc1O	inactive: 0.393%	
Cc1oc2c(c1C(=O)c1ccc(Cl)cc1)C(=O)C(=O)c1ccccc1-2	inactive: -2.25%	
Clc1cccc(-c2cc3nc4c(c(NCc5ccco5)n3n2)CCCC4)c1		inconclusive [activator, partial curve, poor fit]
O=c1c2cc(N3CCOCC3)ccc2[nH]c(=S)n1Cc1ccccc1Cl		inconclusive [activator, full curve, poor fit]
O=C(NC1=NCCS1)c1cc(-c2ccc(-c3ccccc3)cc2)nc2ccccc12		inconclusive [activator, full curve, poor fit]
COc1ccc2[nH]cc(/C=C(/C#N)S(=O)(=O)c3ccccc3)c2c1	inactive: -3.33%	
COc1cc(-c2noc(C)c2/C=C/c2ccc(C(=O)O)cc2)cc(OC)c1OC	inactive: 1.7%	
COc1ccc(OCC(=O)Nc2cccc(-c3nc4ccccc4[nH]3)c2)cc1		inconclusive [activator, single point]
O=C1Cc2ccccc2C(=O)N1OCc1ccc(Cl)cc1Cl	inactive: -2.66%	
O=C(CC1Nc2ccccc2NC1=O)Nc1ccccc1 (stereo not given)		inconclusive [activator, full curve, poor fit]
COc1ccccc1OCC(=O)Nc1ccc2c(c1)OCO2		inconclusive [activator, partial curve, poor fit]
COc1ccc(CC(=O)Nc2cccc(-c3nnc(-c4ccc(C)cc4)o3)c2)cc1OC	inactive: 20.8%	
Cc1cc(C)n2cc(CSCc3ccccc3)nc2n1		inconclusive [activator, full curve, poor fit]
O=C(NCc1ccc2c(c1)OCO2)c1ccc(CN2CCc3ccccc3C2)cc1		inconclusive [activator, single point]
CCN1CCCc2cc(CN(CCN3CCOCC3)C(=S)Nc3cccc(OC)c3)ccc21	inactive: 5.15%	
CCC(C)c1ccc(NC(=O)Nc2cccnc2)cc1 (stereo not given)		inconclusive [activator, partial curve, poor fit]
Cc1cccc(NC(=O)CCNC(=O)c2ccc(Br)cc2)c1	inactive: 11.7%	
Fc1ccc(/C=N/Nc2ccccn2)cc1		inconclusive [activator, partial curve, poor fit]
CC(C)CCn1cnc2c(oc3nc4c(cc32)CCCC4)c1=O	inactive: 0.181%	
CCN1c2ccccc2NC2N=C(OC)C(c3ccccc3)C21 (stereo not given)	inactive: -19.2%	
CCCCS(=O)(=O)N1CN(S(=O)(=O)CCCC)C2NC(=O)NC21 (stereo not given)		inconclusive [activator, partial curve, poor fit]

Structure (SMILES)	activity change, positive = activation	Potency
CC1CC(C)CN(C(=S)Nc2ccc3nc4n(c(=O)c3c2)CCCCC4)C1 (stereo not given)	inactive: -10.2%	
O=C(CSc1nnc(NC(=O)c2ccc(F)cc2)s1)NC1CCCC1		inconclusive [activator, partial curve, poor fit]
COc1cccc(/C=C/C(=O)OCC(=O)Nc2cccc(S(=O)(=O)N(C)C)c2)c1	inactive: -0.54%	
COc1cc(C=O)ccc1OCCCOc1ccccc1[N+](=O)[O-]		inconclusive [activator, partial curve, poor fit]
COc1ccccc1NC(=O)C1CCN(S(C)(=O)=O)CC1		inconclusive [activator, partial curve, poor fit]
COc1ccc(NC(=O)CNS(=O)(=O)c2ccc(Cl)cc2)cc1OC	inactive: 5.4%	
Cc1c(CN2CCC(n3nccc3NC(=O)C3CC3)CC2)[nH]c2ccccc12	inactive: 11.3%	
Cc1ccc(C)c(NC(=O)CSc2ncnc3nc[nH]c23)c1		inconclusive [activator, single point]
COc1ccc(NC(=O)c2ccco2)c([N+](=O)[O-])c1		inconclusive [activator, partial curve, poor fit]
C/C(=N\Nc1nncc2ccccc12)c1cccc(OC(F)F)c1		inconclusive [activator, full curve, poor fit]
O=C(NCc1cccnc1)c1ccc(NC(=O)c2ccc([N+](=O)[O-])cc2)cc1	inactive: -2.48%	
O=C1c2ccccc2C(=O)N1C/C=C/c1ccccc1		inconclusive [activator, single point]
Oc1ccccc1-c1csc(-c2ccccc2)n1		inconclusive [activator, partial curve, poor fit]
CON(C)C(=O)c1ccccc1N(C)C(=O)OC(C)(C)C	inactive: -1.8%	
CCOC(=O)/C(C#N)=N/Nc1ccccc1OC		inconclusive [activator, single point]
O=C(NC(=S)N1CCCc2ccccc21)c1ccc(Cl)cc1		inconclusive [activator, partial curve, poor fit]
[O-]/[N+](=C\c1ccncc1)c1ccccc1		inconclusive [activator, single point]
CSc1nn2c(C(F)(F)F)cc(C(F)(F)F)nc2c1C(N)=O	inactive: -0.385%	
COC(=O)c1ccc(NC(=O)C(=O)NCC2CCCO2)cc1 (stereo not given)		inconclusive [activator, partial curve, poor fit]
Cc1oncc1-c1csc(-c2ccccc2)n1		inconclusive [activator, partial curve, poor fit]
O=C(c1cc(-c2ccc(Br)cc2)on1)N1CCCC1		inconclusive [activator, full curve, poor fit]
CC1CCc2nc(NC(=O)CSc3nc4ccccc4o3)sc2C1 (stereo not given)		inconclusive [activator, partial curve, poor fit]
CCOc1ccc(OCCC(=O)OCC(=O)NNC(=O)c2ccccc2)cc1	inactive: 2.55%	
CC(=O)Nc1ccc(SCC(=O)Nc2ccc3c(c2)OCCO3)cc1		inconclusive [activator, single point]
COc1ccc(C(=O)/C=C/c2ccc(N3CCCCC3)c([N+](=O)[O-])c2)cc1		inconclusive [activator, partial curve, poor fit]
